Reference: the RNAGym collection of RNA variant scans (doi:10.1073/pnas.2313332121)
This sample is rich in variants without activity.

B1: TPR 5TU (parent)
chain: GGAUCUUCUCGAUCUAACAAAAAAGACAAAUCUGCCACAAAGCUUGAGAGCAUCUUCGGAUGCAGAGGCGGCAGCCUUCGGUGGCGCGAUAGCGCCAACGUUCUCAACUAUGACACGCAAAACGCGUGCUCCGUUGAAUGGAGUUUAUCAUG

Variants of: B1
Assay: polymerase ribozyme fitness, log enrichment relative to wild type (log ratio); higher = more active; in vitro selection for triplet polymerase activity
Procedure, shortened: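 The heterodimeric triplet polymerase ribozyme's subunits were each mutagenized into PCR-built libraries and transcribed. Every library was selected once, in triplicate, by annealing with a biotinylated primer, the partner subunit and triplets, incubating frozen at −7 °C, gel-excising extended constructs, capturing on streptavidin beads and running RT-PCR. Input and output libraries were Illumina-sequenced, with genotypes kept only at ≥10 input reads and ≥1 read per output. Fitness, from inverse-variance-weighted replicate averages, is the base-2 logarithm of genotype enrichment over wild-type enrichment.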

Variant	polymerase ribozyme fitness (log ratio)
C51U G81A U148A	≤ -4.2
C51U G83A C105G A107C G117A	≤ -4.2
C51U G83U G86U G94A U135G U144G G152C	≤ -4.2
C51U G84C C87A C95A A122C A137U G141C	≤ -4.2
C51U G86C A113G C114U A121G U151G	≤ -4.2
C51U G86U A89U C114U	≤ -4.2
C51U G86U U104A C108A G124U	≤ -4.2
C51U G88C A107G A113G C131G A147C	≤ -4.2
C51U G92A C99A C149U	≤ -4.2
C51U G92U A107U A113U	≤ -4.2
C51U G124A G133C G140A A150G	≤ -4.2
C51U G136C A138U	≤ -4.2
C51U G141A	0.523
C51U U53A C96A G140U	≤ -4.2
C51U U53C U55A C75A C95U U134C A150U	≤ -4.2
C51U U53G C93G U127C	≤ -4.2
C51U U55A A64C G65C C95A C99A C114A	≤ -4.2
C51U U55A C116U C131A G136U G143A	≤ -4.2
C51U U55A G70U C79A G81C C87A G133U	≤ -4.2
C51U U56G C57U A97G C116U A137C A150G	≤ -4.2
C51U U61A G84U	-2.8

Variant	polymerase ribozyme fitness (log ratio)
C51U U77G G133C	≤ -4.2
C51U U134C	-0.745
C51U U139G U144A	0.259
A52C	-0.883
A52C A60C	-2.71
A52C A60C G80A G117C U134C	≤ -4.2
A52C A64C A89U C96G	≤ -4.2
A52C A64U	≤ -4.2
A52C A66C A91C A115G	≤ -4.2
A52C A73C G88U A97U U102G G117U U139G	≤ -4.2
A52C A73G A138G	≤ -4.2
A52C A73G G84U A115G C123G G124C C129A	≤ -4.2
A52C A89G U127A	≤ -4.2
A52C C54U C95U C108G U145G	≤ -4.2
A52C C54U U55G G67C G71U C85U G143C	≤ -4.2
A52C C54U U78A C87U U135A	≤ -4.2
A52C C57A C149G	≤ -4.2
A52C C57U A60C G62A G81U	≤ -4.2
A52C C57U G86U C99U C118U C125G G143A U151A	≤ -4.2
A52C C69G G74C	≤ -4.2
A52C C69U C87U	≤ -4.2

Variant	polymerase ribozyme fitness (log ratio)
A52C C76A	≤ -4.2
A52C C76A A89G C95G U104G A122G	≤ -4.2
A52C C76G	≤ -4.2
A52C C85A A98C G133A G141U U146C	≤ -4.2
A52C C85A C93U C96G A121C U146C	≤ -4.2
A52C C85U G92A	≤ -4.2
A52C C85U G100A C116A U139A	≤ -4.2
A52C C87A C93A U109G	≤ -4.2
A52C C87A U134A	≤ -4.2
A52C C87U A89C C99U	-4.14
A52C C93G A122G	-3.18
A52C C93U U102G	≤ -4.2
A52C C99U G112C C116U U151C	≤ -4.2
A52C C118U G143A U144C	-3.94
A52C C149A	≤ -4.2
A52C G58C C132A	≤ -4.2
A52C G59A	-1.18
A52C G65A G68C G86A U111C A142C	≤ -4.2
A52C G65A U78A A91U U135C A138C U144G	≤ -4.2
A52C G65U G74C C87G C103G	≤ -4.2
A52C G67C G81C C108G A138G A142G U145C	≤ -4.2

Variant	polymerase ribozyme fitness (log ratio)
A52C G68A C103G	≤ -4.2
A52C G68A U78A A115C A138U	≤ -4.2
A52C G68U C85A G88A	≤ -4.2
A52C G70A	-3.92
A52C G70A C72A C93U A97U U148G	≤ -4.2
A52C G71A C85A G94C G141U	≤ -4.2
A52C G71C	≤ -4.2
A52C G74A A89C C95A	≤ -4.2
A52C G74C U104A	≤ -4.2
A52C G80C C93A G94U U101G A142G	≤ -4.2
A52C G80C C108G A122G G140U	≤ -4.2
A52C G80C G84U C93U	≤ -4.2
A52C G83C	-2.29
A52C G83C C108G C149U	≤ -4.2
A52C G83U G112C	≤ -4.2
A52C G84A A107G G140C	≤ -4.2
A52C G84A U130C	-0.715
A52C G84U C93G C132G	≤ -4.2
A52C G84U U144G	-2.05
A52C G86C A113U G126U U134G	≤ -4.2
A52C G88U	≤ -4.2
